Results from patent publication US20170210802A1 (INNATE PHARMA, published 2017).

B1: CD19-F10A-NKp46-3 (bispecific antibody, human IgG1, kappa)
chain 1: DIQLTQSPASLAVSLGQRATISCKASQSVDYDGDSYLNWYQQIPGQPPKLLIYDASNLVSGIPPRFSGSGSGTDFTLNIHPVEKVDAATYHCQQSTEDPWTFGGGTKLEIKRTVAAPSVFIFPPSDEQLKSGTASVVCLLNNFYPREAKVQWKVDNALQSGNSQESVTEQDSKDSTYSLSSTLTLSKADYEKHKVYACEVTHQGLSSPVTKSFNRGEC
chain 2: QVQLQQSGAELVRPGSSVKISCKASGYAFSSYWMNWVKQRPGQGLEWIGQIWPGDGDTNYNGKFKGKATLTADESSSTAYMQLSSLASEDSAVYFCARRETTTVGRYYYAMDYWGQGTTVTVSSASTKGPSVFPLAPSSKSTSGGTAALGCLVKDYFPEPVTVSWNSGALTSGVHTFPAVLQSSGLYSLSSVVTVPSSSLGTQTYICNVNHKPSNTKVDKRV[… human IgG1 Fc with N297S (EU numbers) …]GGGSGGGGSGGGGSGQPREPQVYTLPPSREEMTKNQVSLTCLVKGFYPSDIAVEWESNGQPENNYKTTPPVLDSDGSFFLYSKLTVDKSRWQQGNVFSCSVMHEALHNHYTQKSLSLSPGSTGSEVQLQQSGPELVKPGASVKISCKTSGYTFTEYTMHWVKQSHGKSLEWIGGISPNIGGTSYNQKFKGKATLTVDKSSSTAYMELRSLTSEDSAVYYCARRGGSFDYWGQGTTLTVSSVEGGSGGSGGSGGSGGVDDIVMTQSPATLSVTPGDRVSLSCRASQSISDYLHWYQQKSHESPRLLIKYASQSISGIPSRFSGSGSGSDFTLSINSVEPEDVGVYYCQNGHSFPLTFGAGTKLELK
notes: Heterodimer, monomeric Fc with tandem CH3, N297S, wild-type hinge cysteines (variant A); also called Format 10 (F10)
B2: CD19-F13-NKp46-3 (bispecific antibody, human IgG1, kappa)
chain 1: DIQLTQSPASLAVSLGQRATISCKASQSVDYDGDSYLNWYQQIPGQPPKLLIYDASNLVSGIPPRFSGSGSGTDFTLNIHPVEKVDAATYHCQQSTEDPWTFGGGTKLEIKRTVAAPSVFIFPPSDEQLKSGTASVVCLLNNFYPREAKVQWKVDNALQSGNSQESVTEQDSKDSTYSLSSTLTLSKADYEKHKVYACEVTHQGLSSPVTKSFNRGE[… human IgG1 Fc …]
chain 2: QVQLQQSGAELVRPGSSVKISCKASGYAFSSYWMNWVKQRPGQGLEWIGQIWPGDGDTNYNGKFKGKATLTADESSSTAYMQLSSLASEDSAVYFCARRETTTVGRYYYAMDYWGQGTTVTVSSASTKGPSVFPLAPSSKSTSGGTAALGCLVKDYFPEPVTVSWNSGALTSGVHTFPAVLQSSGLYSLSSVVTVPSSSLGTQTYICNVNHKPSNTKVDKRV[… human IgG1 Fc …]TGSEVQLQQSGPELVKPGASVKISCKTSGYTFTEYTMHWVKQSHGKSLEWIGGISPNIGGTSYNQKFKGKATLTVDKSSSTAYMELRSLTSEDSAVYYCARRGGSFDYWGQGTTLTVSSVEGGSGGSGGSGGSGGVDDIVMTQSPATLSVTPGDRVSLSCRASQSISDYLHWYQQKSHESPRLLIKYASQSISGIPSRFSGSGSGSDFTLSINSVEPEDVGVYYCQNGHSFPLTFGAGTKLELK
notes: Heterodimer with dimeric wild-type Fc domain; also called Format 13 (F13); copies: 1 + 1
B3: CD19-F14-NKp46-3 (bispecific antibody, human IgG1, kappa)
chain 1: IQLTQSPASLAVSLGQRATISCKASQSVDYDGDSYLNWYQQIPGQPPKLLIYDASNLVSGIPPRFSGSGSGTDFTLNIHPVEKVDAATYHCQQSTEDPWTFGGGTKLEIKRTVAAPSVFIFPPSDEQLKSGTASVVCLLNNFYPREAKVQWKVDNALQSGNSQESVTEQDSKDSTYSLSSTLTLSKADYEKHKVYACEVTHQGLSSPVTKSFNRGE[… human IgG1 Fc with N297S (EU numbers) …]
chain 2: QVQLQQSGAELVRPGSSVKISCKASGYAFSSYWMNWVKQRPGQGLEWIGQIWPGDGDTNYNGKFKGKATLTADESSSTAYMQLSSLASEDSAVYFCARRETTTVGRYYYAMDYWGQGTTVTVSSASTKGPSVFPLAPSSKSTSGGTAALGCLVKDYFPEPVTVSWNSGALTSGVHTFPAVLQSSGLYSLSSVVTVPSSSLGTQTYICNVNHKPSNTKVDKRV[… human IgG1 Fc with N297S (EU numbers) …]TGSEVQLQQSGPELVKPGASVKISCKTSGYTFTEYTMHWVKQSHGKSLEWIGGISPNIGGTSYNQKFKGKATLTVDKSSSTAYMELRSLTSEDSAVYYCARRGGSFDYWGQGTTLTVSSVEGGSGGSGGSGGSGGVDDIVMTQSPATLSVTPGDRVSLSCRASQSISDYLHWYQQKSHESPRLLIKYASQSISGIPSRFSGSGSGSDFTLSINSVEPEDVGVYYCQNGHSFPLTFGAGTKLELK
notes: also called Format 14 (F14); copies: 1 + 1

Experiments:
[1] = molecular target: T1, Human NKp46 recombinant proteins (human, UniProt O76036 22-258, limits assumed); experiment: SPR (Biacore T100), antibody captured on Protein-A chip, recombinant human NKp46 injected (6.25-400 nM), 1:1 kinetic model
T1 construct: also called recombinant human NKp46
T1 sequence (looked up): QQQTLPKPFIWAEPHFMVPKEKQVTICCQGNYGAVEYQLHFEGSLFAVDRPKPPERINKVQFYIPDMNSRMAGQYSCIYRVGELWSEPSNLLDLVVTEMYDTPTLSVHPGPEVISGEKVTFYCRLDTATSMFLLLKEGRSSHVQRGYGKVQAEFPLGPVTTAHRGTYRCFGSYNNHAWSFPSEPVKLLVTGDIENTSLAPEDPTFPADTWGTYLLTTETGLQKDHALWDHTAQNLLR
Method: SPR measurements were performed on a Biacore T100 apparatus (Biacore GE Healthcare) at 25° C. In all Biacore experiments HBS-EP+(Biacore GE Healthcare) and NaOH 10 mM served as running buffer and regeneration buffer respectively. Sensorgrams were analyzed with Biacore T100 Evaluation software. Protein-A was purchase from (GE Healthcare). Human NKp46 recombinant proteins were cloned, produced and purified at Innate Pharma.
Protein-A proteins were immobilized covalently to carboxyl groups in the dextran layer on a Sensor Chip CM5. The chip surface was activated with EDC/NHS (N-ethyl-N′-(3-dimethylaminopropyl) carbodiimidehydrochloride and N-hydroxysuccinimide (Biacore GE Healthcare)). Protein-A was diluted to 10 μg/ml in coupling buffer (10 mM acetate, pH 5.6) and injected until the appropriate immobilization level was reached (i.e. 2000 RU). Deactivation of the remaining activated groups was performed using 100 mM ethanolamine pH 8 (Biacore GE Healthcare).
Monovalent affinity study was done following a regular Capture-Kinetic protocol recommended by the manufacturer (Biacore GE Healthcare kinetic wizard). Seven serial dilutions of human NKp46 recombinant proteins, ranging from 6.25 to 400 nM were sequentially injected over the captured Bi-Specific antibodies and allowed to dissociate for 10 min before regeneration. The entire sensorgram sets were fitted using the 1:1 kinetic binding model.

[2] = molecular target: T2, human FcRn (recombinant, Example 10) (human, UniProt P55899 part only; P61769 part only, limits assumed); experiment: SPR, recombinant FcRn immobilised on CM5, Steady State
T2 construct: also called recombinant FcRn proteins

[3] = molecular target: T2, human FcRn (recombinant, Example 10); experiment: SPR, recombinant FcRn immobilised on CM5, SCK/Two state reaction
T2 sequence (P55899 24-297 limits assumed, form in doubt, chain 1 of 2): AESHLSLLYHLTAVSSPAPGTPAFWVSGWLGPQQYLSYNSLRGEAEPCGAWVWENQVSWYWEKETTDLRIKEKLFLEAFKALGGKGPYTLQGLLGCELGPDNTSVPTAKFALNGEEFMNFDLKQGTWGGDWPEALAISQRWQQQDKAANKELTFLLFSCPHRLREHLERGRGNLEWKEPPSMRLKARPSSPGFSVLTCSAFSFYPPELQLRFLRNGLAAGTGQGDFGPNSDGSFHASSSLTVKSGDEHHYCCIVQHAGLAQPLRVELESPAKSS
T2 sequence (P61769 21-119 limits assumed, form in doubt, chain 2 of 2, further chain): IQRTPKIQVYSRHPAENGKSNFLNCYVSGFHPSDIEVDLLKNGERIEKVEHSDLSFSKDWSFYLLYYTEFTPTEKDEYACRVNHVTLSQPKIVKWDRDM

Binder | Kd [1] | koff [1] | kon [1] | Kd [2] | Kd [3]
B1 | 29 nM | 0.00754 s⁻¹ | 261000 M⁻¹ s⁻¹ | 433 nM | 
B2 | 68 nM | 0.00565 s⁻¹ | 83000 M⁻¹ s⁻¹ |  | 
B3 | 62 nM | 0.00546 s⁻¹ | 88300 M⁻¹ s⁻¹ |  | 14 nM
